Values marked as one replicate rest on one cluster of the flow cell; about a third of the high ones do not repeat.
The sequences below were run on ATP (assay: switch fluorescence ratio, 500 uM ATP over buffer (Cy3 cluster intensity, sum of 5 cycles each) (fold (ratio)); higher = stronger signal-on switching upon ATP binding; sequences stand for … in TCGTCGGCAGCGTCAGATGTGTATAAGAGACAGTTTTTTTTTTTTTTTTTTTTTTTTT…TC). Conditions: aptamer strand: ATP DNA aptamer (quencher-CACCTGGGGGAGTATTGCGGAGGAAGG + anchor), 100 nM annealed; ATP concentration: 500 uM; one replicate.
How it was run: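 Cy3-labelled switching-strand clusters on a modified Illumina MiSeq flow-cell were annealed to 100 nM quencher-labelled ATP aptamer and imaged first in selection buffer, then after 15 min with 500 uM ATP at 22 °C. NaOH stripping and re-annealing separated each of five buffer/ATP cycles, and clusters outside 100-1000 RFU were excluded. The fluorescence ratio sums target-cycle Cy3 intensity over buffer-cycle Cy3 intensity per cluster and averages it per switch-domain sequence.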
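Also: ATP exposure 15 min at 22 °C before imaging.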

Sequence	switch fluorescence ratio
TCAACATGAA	0.993
TCAACGAGTC	1.06
TCAACGCTTT	1.05
TCAACGGC	1.14
TCAACGTTG	0.963
TCAACTGGG	1.11
TCAAGACGGG	1.32
TCAAGCGATT	1.07
TCAAGGCATC	1.06
TCAAGGGCCC	0.98
TCAAGGGGTA	0.994
TCAATAAGT	0.982
TCAATATGGC	1.02
TCAATCGATC	0.996
TCAATGCGAG	1.07
TCAATGCTGT	1.01
TCAATGGTCT	1
TCAATTACGA	1.03
TCAATTGAGT	1.01
TCAATTTTCT	0.984
TCACAATGCA	0.998
TCACATCTAA	1.03
TCACATGGC	0.984
TCACCAAACC	1.15
TCACCACCGT	1.13
TCACCATACG	1.41

Sequence	switch fluorescence ratio
TCACCCACAG	1.45
TCACCGAGTT	1.05
TCACCGGCGG	1.06
TCACCGGGTT	1.15
TCACCGTTTT	1.07
TCACCTGCCT	1.59
TCACGAAATA	1.13
TCACGACGTT	1.01
TCACGATCGC	1.13
TCACGATGTT	0.963
TCACGGAGTG	1.01
TCACGTCAAC	1.36
TCACTAATGG	0.987
TCACTAGTTG	1.01
TCACTATTTG	1
TCACTGAATA	1.03
TCACTGTTTT	1.03
TCACTTGGGA	0.997
TCAGACGGGT	0.958
TCAGAGCGCC	1.03
TCAGATATCC	1.01
TCAGATGGTC	0.995
TCAGATGTGG	1.02
TCAGATTCTT	0.985
TCAGATTTCG	1.01
TCAGCAAGG	3.25

Sequence	switch fluorescence ratio
TCAGCCCTAT	1.02
TCAGCCGCTA	1.79
TCAGCGCAGG	1.06
TCAGCGTTAG	1.04
TCAGCTCTGT	0.986
TCAGGCTGG	0.966
TCAGGGAGCC	0.996
TCAGGGCGGA	0.971
TCAGGTAAAG	1.1
TCAGGTGTTC	1.57
TCAGGTTGGT	1.15
TCAGTAACGG	0.99
TCAGTAATC	1.24
TCAGTATGGA	0.959
TCAGTCCGCT	1.45
TCAGTGCGGT	0.968
TCAGTGGTAA	1.03
TCAGTTACTG	1.02
TCAGTTTCAA	1.03
TCATAAGGGT	0.975
TCATACATAA	1.07
TCATACATGC	1.07
TCATACCGGA	1
TCATAGAAAA	1.01
TCATAGAGAA	1.03
TCATAGGGAT	1.02

Sequence	switch fluorescence ratio
TCATCAATC	1.1
TCATCGGACA	0.999
TCATCGTAAT	1.56
TCATCGTGTT	0.954
TCATCTATAG	1.01
TCATCTGAGG	1
TCATGAAGGG	1.04
TCATGCAGG	0.975
TCATGCGCGC	1.04
TCATGCGCGT	1.05
TCATGGTGTA	1.01
TCATGGTGTG	0.98
TCATGTAATT	1.03
TCATGTTGCC	1.01
TCATTACTGG	0.98
TCATTATCGC	0.992
TCATTCAAAT	1
TCATTCAACC	0.983
TCATTCATC	1.03
TCATTCGCAC	4.01
TCATTGCCTT	1.03
TCATTGCTGC	1
TCATTTAGTG	0.963
TCATTTGGGT	0.983
TCCAAAGCAC	4.31
TCCAACGGAA	1.32

Sequence	switch fluorescence ratio
TCCAACGGTG	1.33
TCCAACTCCC	1.61
TCCAAGTATA	1.01
TCCAATAAGT	0.989
TCCAATACGA	4.29
TCCAATTAAT	1.01
TCCACCCATA	1.32
TCCACGATGT	1.03
TCCACTAATT	1.03
TCCACTCATT	1.02
TCCAGAGATT	1.05
TCCAGAGCTG	0.952
TCCAGCAAAG	1.84
TCCAGGCTAG	0.981
TCCAGGCTCG	1.02
TCCATAGACA	1.02
TCCATCAGGC	1.09
TCCATCTGGT	0.993
TCCATGTTAC	1.19
TCCATTTTTA	1.03
TCCCAAATGT	0.97
TCCCACCCTT	1.99
TCCCCCAGTT	2.97
TCCCCGTCAT	1.95
TCCCGGTGTT	1.81
TCCCGGTTCT	0.998

Sequence	switch fluorescence ratio
TCCCGGTTGA	1.05
TCCCGTACCT	1.08
TCCCGTGTGC	1.27
TCCCGTTCG	1.14
TCCCGTTCTG	1.01
TCCCTACTCA	1.09
TCCCTCCGTT	3.02
TCCGAAGTTT	2.1
TCCGAATGAG	1.12
TCCGAGGTGC	2.85
TCCGATTGTA	1.07
TCCGCAGTGT	1.19
TCCGCATCA	1.01
TCCGCATGTA	3.56
TCCGCTACCG	1.54
TCCGCTCCTC	3.67
TCCGGAAGGG	1.05
TCCGGAATAT	3.38
TCCGGACCTG	1.09
TCCGGACGG	0.977
TCCGGCAACT	1.89
TCCGGCAGTT	1.18
TCCGGCGATT	1.33
